Results on four compounds are retold here after PubChem BioAssay (NCI).

Each structure is given as a SMILES string.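 All cell lines were grown in 96-well plates and treated with compound for 48 hours. Abbreviation: GI50, concentration required for 50% inhibition of growth. Definition used: TGI = concentration required for complete inhibition of growth.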 Bounds are passed on as bounds.

The test system of the test is NCI-H322M lung. Description: DTP human tumour cell line panel, 48 h.
A word on the GI50: it is the concentration giving 50% growth inhibition. Usually TGI stands for the concentration at which net growth stops. For `CC1=C(CCC=NNC(N)=O)C2=C(C)C3(CC3)[C@@](C)(O)C(=O)C2=C1`, the GI50 was 76.6 nM and the TGI amounted to 504 nM.

Turning to `Cc1ccc(-c2nc(C#N)c(S(=O)(=O)N3CCN(S(C)(=O)=O)CC3)o2)cc1`, the GI50 was greater than 100000 nM and the TGI was greater than 100000 nM.

For the compound `CN1CCN(Cc2ccc(C(=O)Nc3cccc(C#Cc4cccc5[nH]nc(N)c45)c3)cc2C(F)(F)F)CC1`, the GI50 is 940 nM and the TGI was determined as 2160 nM.

`O=C1Nc2ccc(Cl)cc2/C1=C/c1cccc(OCc2ccccc2)c1`: the GI50 was 20000 nM and the TGI was greater than 100000 nM.
